# Reference: paper PMC4336329 (PLoS ONE, 2015)
# The whole screen tested about 310,000 compounds, of which about 14,000 (4.5%) showed an effect of 50% or more. Effects have a minus sign here. The list shows a part of the results.
# Molecular target: human ether-à-go-go-related gene (hERG) potassium channel (human, UniProt Q12809)
# Assay: primary screen, population patch clamp on CHO cells stably expressing hERG
# 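Also: peak tail current of the secondary pulse compared with the same well before compound.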
# human ether-à-go-go-related gene (hERG) potassium channel, sequence (Q12809 whole entry, looked up): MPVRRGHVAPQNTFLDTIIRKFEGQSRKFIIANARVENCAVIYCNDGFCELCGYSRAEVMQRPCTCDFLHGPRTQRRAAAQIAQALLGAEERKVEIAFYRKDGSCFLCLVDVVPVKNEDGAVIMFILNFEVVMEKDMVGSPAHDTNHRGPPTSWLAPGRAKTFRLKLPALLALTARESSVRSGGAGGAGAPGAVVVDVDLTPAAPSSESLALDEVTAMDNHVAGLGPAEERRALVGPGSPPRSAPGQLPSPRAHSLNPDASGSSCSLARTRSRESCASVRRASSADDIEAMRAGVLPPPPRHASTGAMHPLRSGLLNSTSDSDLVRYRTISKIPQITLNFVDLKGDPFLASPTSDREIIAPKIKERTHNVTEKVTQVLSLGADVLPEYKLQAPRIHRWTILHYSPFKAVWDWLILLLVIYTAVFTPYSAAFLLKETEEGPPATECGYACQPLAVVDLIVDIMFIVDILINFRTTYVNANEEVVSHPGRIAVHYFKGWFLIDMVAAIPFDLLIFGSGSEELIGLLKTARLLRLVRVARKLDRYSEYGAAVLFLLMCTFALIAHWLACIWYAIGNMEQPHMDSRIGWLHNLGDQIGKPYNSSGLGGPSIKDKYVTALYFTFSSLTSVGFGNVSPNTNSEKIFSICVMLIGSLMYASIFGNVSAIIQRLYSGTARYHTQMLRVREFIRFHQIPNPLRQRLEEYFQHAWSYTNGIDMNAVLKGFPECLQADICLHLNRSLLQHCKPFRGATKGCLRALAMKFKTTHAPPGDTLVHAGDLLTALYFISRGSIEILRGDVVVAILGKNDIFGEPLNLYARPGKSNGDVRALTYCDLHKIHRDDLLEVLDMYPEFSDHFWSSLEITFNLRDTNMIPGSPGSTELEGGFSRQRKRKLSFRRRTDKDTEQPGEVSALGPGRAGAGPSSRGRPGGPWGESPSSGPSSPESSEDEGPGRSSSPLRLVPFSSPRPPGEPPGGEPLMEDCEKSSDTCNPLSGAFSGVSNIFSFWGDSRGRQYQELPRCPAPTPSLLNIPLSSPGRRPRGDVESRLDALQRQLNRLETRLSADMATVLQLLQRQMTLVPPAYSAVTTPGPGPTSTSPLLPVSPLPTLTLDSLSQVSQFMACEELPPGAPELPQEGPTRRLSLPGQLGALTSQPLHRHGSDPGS
row,SMILES,"hERG current change (%, negative = inhibition) at 10uM"
1,COc1ccc(OCC(=O)NNC(=O)C(=O)N2CCCC2)cc1,-3.91%
2,COc1ccc(-c2noc3c2-c2nc(-c4ccccc4)sc2CC3)cc1,10.5%
3,COC(=O)c1ccc(CSc2n[nH]c(=S)s2)o1,16.3%
4,COCC(C)n1c(C)cc(C(=O)COC(=O)CN=C2NS(=O)(=O)c3ccccc32)c1C (centres unmarked),18.4%
5,Cc1cccc(N2CCN(Cc3nc(CC4CC4)no3)CC2)n1,-11.2%
6,Cc1csc(NC(=O)Cc2ccccc2Cl)n1,21.4%
7,CC(=O)OCC(=O)Nc1ccc(SC(F)F)cc1,-8.2%
8,O=C(OCc1cncs1)c1ccccc1,22.7%
9,O=C(COc1ccccc1Cl)NCCCN1CCOCC1,-3.76%
10,COc1ccc(N(CCC#N)S(=O)(=O)c2cccc3nsnc23)cc1,-10.1%
11,O=C(O)CCC(=O)N1N=C(c2ccccc2)CC1c1ccc2c(c1)OCO2 (centres unmarked),14%
12,Cc1c(NS(=O)(=O)c2ccccc2)cc(Cl)c(O)c1C,-5.08%
13,Cc1ccc(C(C(=O)NCc2ccco2)N(C(=O)Cn2nnc3ccccc32)c2ccccc2)o1 (centres unmarked),-2.02%
14,COc1ccc(NC(=O)c2sc3nc(N4CCOCC4)c4c(c3c2N)CC(C)(C)OC4)cc1,10.6%
15,Cc1ccc(C)c(NC(=O)CSc2nnc(Cc3cccn3C)n2-c2ccc(F)cc2)c1,0.646%
16,CCc1ccc2c(COC(=O)CNS(=O)(=O)c3ccc(NC(C)=O)cc3)cc(=O)oc2c1,6.49%
17,Cc1cc(C)cc(N(CCC#N)C(=O)COC(=O)CNC(=O)c2sc3ccccc3c2Cl)c1,-9.94%
18,Cn1nc(-c2ccccc2)c(COC(=O)c2cccc(Cl)c2)c1S(=O)(=O)c1ccccc1,-2.01%
19,CC1(c2ccccc2)NC(=S)N2C1NC(=S)N2c1ccccc1 (centres unmarked),10.2%
20,CCC(Cc1ccccc1)NS(=O)(=O)c1ccc2c(c1)NC(=O)CS2 (centres unmarked),-22.7%
21,Nc1nc(NCCCN2CCOCC2)nc(Nc2ccc(Cl)cc2)c1[N+](=O)[O-],7.65%
22,CCn1c(CNc2cccc(Cl)c2)nnc1SCc1ccccc1,-0.385%

row,SMILES,"hERG current change (%, negative = inhibition) at 10uM"
1,O=C(CCC(=O)N1CCOCC1)Nc1nnc(C2CCCCC2)s1,-0.44%
2,CCOP(=O)(OCC)c1nc(-c2ccccc2)oc1N1CCCCC1,4.4%
3,Cc1ccc(Nc2nc(C)cs2)cc1,5.82%
4,CCOC(=O)c1c(C)n(Cc2ccco2)c2ccc(OC)cc12,-46.2%
5,O=C(NC1CCCCC1)NC1CC2CCC(C1)N2C(=O)NCc1ccccc1 (centres unmarked),15.3%
6,CCN(CC)C(=O)COc1cc(C)cc2oc(=O)c3c(c12)CCCC3,-25.5%
7,O=c1[nH]c(O)c(N=Nc2ccc3c(c2)OCCO3)c(=O)[nH]1,14.2%
8,COCCn1c(C)cc(C(=O)CSc2nc(C)cc(C)c2C#N)c1C,-8.96%
9,COc1ccc(C(=O)NCCc2ccc(C)cc2)cc1OC1CCN(C(C)=O)CC1,-4.05%
10,CCOC(=O)C1=C(CNCc2ccc(C)cc2)NC(=O)NC1c1ccc(OC)cc1 (centres unmarked),-23.7%
11,CCOC(=O)OC(C)OC(=O)[C@@H]1N2C(=O)[C@@H](NC(=O)[C@H](N)c3ccccc3)[C@H]2SC1(C)C.Cl (some centres unmarked),12.7%
12,O=C(CSc1nc(=O)n2ccccc2n1)NCCc1ccccc1,-1.36%
13,NC(=O)CSc1nnc(-c2cccs2)n1-c1ccccc1,10.2%
14,O=C(Nc1ccccc1)OCc1cc(-c2ccc(Cl)cc2)on1,11.6%
15,O=C(CSc1nnc(-c2ccccn2)n1Cc1ccccc1)Nc1ccc2c(c1)OCO2,-5.94%
16,CCCCS(=O)(=O)N1CCCC(C(=O)N2CCOCC2)C1 (centres unmarked),20.3%
17,Cc1ccc(SCC(=O)N2CCCC2)cc1,-7.31%
18,Cc1ccc(C(c2sc3nc(C)nn3c2O)N2CCN(c3ccc(F)cc3)CC2)cc1 (centres unmarked),-65.2%
19,CCCCN(C)C(=O)c1cc2c(s1)-c1ccccc1S(=O)(=O)C2,-56.5%
20,CCOc1ccc(C(c2c(O)nc(SC)[nH]c2=O)c2c(O)nc(SC)[nH]c2=O)cc1,11.1%
21,O=C(Nc1nnc(Cc2ccccc2)s1)C1CCN(C(=O)c2ccco2)CC1,-36%
22,Cc1ccc(C2=NN(S(=O)(=O)c3ccccc3)C(c3ccco3)C2)cc1 (centres unmarked),8.53%

row,SMILES,"hERG current change (%, negative = inhibition) at 10uM"
1,COc1ccc(S(=O)(=O)N2CCN(C(=O)c3cc(C)oc3C)CC2)cc1,0.806%
2,CCn1ncc(/C=C/C(=O)NCc2cnn(C)c2C)c1C,13.9%
3,CC(=O)N1CCN(C(=O)CNc2cc(C(F)(F)F)ccc2OCC(F)(F)F)CC1,-3.44%
4,O=C(COc1cccc2ccccc12)NNC(=O)CSCCO,-7.99%
5,CCCCCCNc1c([N+](=O)[O-])cc(C)cc1[N+](=O)[O-],1.09%
6,O=C(Nc1ccc(NC(=O)c2cc3ccccc3o2)cc1)c1ccco1,21.8%
7,CC(C)(C)c1ccc(C(=O)c2c[nH]c(C(=O)NCCCN3CCOCC3)c2)cc1,-7.27%
8,CC1CCC(C(=O)c2c(O)c3ccccc3oc2=O)CC1 (centres unmarked),15.9%
9,Cc1ccc(C(CC(=O)c2ccco2)SCCO)cc1 (centres unmarked),6.79%
10,COC(=O)C1(Cc2cc(-c3cccnc3)no2)CCN(C(=O)OC(C)(C)C)CC1,-2.42%
11,NC(=NCCc1ccccc1)NS(=O)(=O)c1ccc2ccccc2c1,5.14%
12,COc1ccc(C(CNC(=O)c2c(C)nn(Cc3ccc(C)cc3)c2Cl)N2CCOCC2)cc1 (centres unmarked),-37.4%
13,COc1cc(NC(=O)c2cc3c(CO)cnc(C)c3oc2=Nc2cccc(C(N)=O)c2)cc(OC)c1,-22.7%
14,COCCNC(=O)CSC1=N/C(=C/c2ccc(Cl)c(Cl)c2)C(=O)N1c1ccccc1F,8.35%
15,O=C(Nc1nnc(-c2ccc3c(c2)OCCO3)o1)c1ccc(Cc2ccccc2)cc1,1.47%
16,O=c1ccn(Cc2ccc(F)cc2)c2ccnc(C(F)(F)F)c12,-25.9%
17,Cc1cccc(CN2CCC(C(=O)Nc3ccc(Oc4cccnc4)cc3)CC2)c1,-14%
18,COc1nc(N(C)C)nc(-n2nnc(C(C)=O)c2C)n1,-9.9%
19,CC(=O)Nc1ccc(-c2nnc(SCc3c(C)cc(C)cc3C)n2C)cc1,4.09%
20,C/C(CC(=O)NC(C)(C)C)=N\NC(=O)COc1ccc(C)cc1Br,4.28%
21,COc1ccccc1N(CC(=O)NCCSCc1ccc(C)cc1)S(=O)(=O)c1ccccc1,-4.22%
22,C=C(C)C1CC=C(C)/C(=N\NC(=O)CCC(=O)Nc2ccc(C)c(C)c2)C1 (centres unmarked),7.6%

row,SMILES,"hERG current change (%, negative = inhibition) at 10uM"
1,COP(=O)(OC)C(NC(=O)c1ccc(C)cc1)C(Cl)(Cl)Cl (centres unmarked),15.5%
2,CCS(=O)(=O)N1CCN(C2CCC(c3ccccc3)CC2)CC1.O=C(O)C(=O)O (centres unmarked),-17.2%
3,Clc1ccc(C2C3=C(Nc4ncnn42)c2ccccc2CC3)cc1 (centres unmarked),-31.8%
4,Cc1cccn2cc(-c3ccc(Cl)cc3)nc12,10.8%
5,Cc1ccccc1-c1ncc(CN2CCC(CO)(CCCc3ccccc3)CC2)cn1,-10.9%
6,COc1ccc(/C=N/n2c(N)nc(-c3ccccc3)c2-c2ccccc2)cc1,-11.2%
7,CCCOc1ccc(C2C(C(=O)c3ccc(C)o3)=C(O)C(=O)N2CCCn2ccnc2)cc1 (centres unmarked),-13.4%
8,CCN1CCCC1CNc1ncnc2c1[nH]c1ccc(Cl)cc12 (centres unmarked),-77.1%
9,CCOc1cc(OCC)cc(C(=O)O)c1,2.02%
10,Nc1c(C=C2C=CC(=O)C=C2)c(=O)nc2sc(CC(=O)N3CCCCC3)nn12,15.6%
11,COc1cccc(NC(=O)CN(C)C(=O)Cn2cnc3ccccc3c2=O)c1,2.05%
12,O=S(=O)(c1cccc(F)c1)N1CCN(C(=S)NCC2CCCO2)CC1 (centres unmarked),9.15%
13,CN(C)CCCN(C(=O)CCS(=O)(=O)c1ccccc1)c1nc2cc3c(cc2s1)OCO3.Cl,-60%
14,CCn1c(SCC(=O)Nc2ccc(NC(=O)c3ccco3)c(OC)c2)nc2ccccc2c1=O,-20%
15,Cc1cc(Oc2ccc(C(C)(C)C)cc2)nc(N2CCOCC2)n1,17.4%
16,COc1ccc(C2COC(=O)C2=N)c(NC(=O)c2ccccc2)c1 (centres unmarked),-9.77%
17,CCC1=NN2C(=N)/C(=C/c3cc(C)n(-c4ccccc4)c3C)C(=O)N=C2S1,16.2%
18,COc1ccc(OC)c(-n2c(=S)[nH]c3cc(C(=O)NCCCN4CCCC4=O)ccc3c2=O)c1,22.4%
19,O=C(c1ccccc1)c1ccc2nc(-c3ccc(NC(=O)c4ccccc4F)cc3)[nH]c2c1,-3.21%
20,CCNC(=O)c1ccc2c(c1)C1C3CCC(C3)C1C(c1ccccc1)N2 (centres unmarked),-5.8%
